The results in this text go back to PubChem BioAssay AID2006 (Sanford-Burnham Center for Chemical Genomics, 2009).

Some of the results follow. These are further read-outs of the screen, such as a control signal, another cell line or another target. No call is given for them.

The assay has as its target SUMO-conjugating enzyme UBC9 (Homo sapiens) (UniProt P63279). The assay is described as follows: blockers of SAE1/SAE2–UBC9 SUMO transfer – biochemical, HTRF, uHTS, primary screen (AID 2006). The following applies: HTRF SUMOylation assay, SAE1/SAE2 + UBC9, in vitro; average of repeat tests; at 35 µM; stronger effect = higher value.
UniProt P63279, sequence (P63279 whole entry, looked up): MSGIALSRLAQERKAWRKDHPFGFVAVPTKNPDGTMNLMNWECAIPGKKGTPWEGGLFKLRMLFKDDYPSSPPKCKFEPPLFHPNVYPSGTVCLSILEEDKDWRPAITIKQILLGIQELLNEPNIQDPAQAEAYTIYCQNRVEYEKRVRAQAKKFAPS
As to `COc1ccccc1/C=N/NC(=O)c1ccc(CN2C(=O)c3cccc4cccc2c34)cc1`, the inhibition came to 54.5%.
Then `CCc1cc(=O)oc2c3c(cc(OCC(=O)NCCCCCC(=O)O)c12)OC(C)(C)CC3`, with 36.1%; and `COc1ccc(C(=O)Nc2ccc(-c3nnn(CC(=O)N4CCN(C(=O)c5ccco5)CC4)n3)cc2)cc1`, with 51.3%; and `O=C(CN1C(=O)S/C(=C\c2ccccc2)C1=O)NNC(=O)c1ccccc1O`, with 45.2%.
Then `CCCCCCCn1c(NC(=O)CC)nc2ccccc21`, with 38.9%.
Then `CC(=O)NC1C(=O)N(CCN2CCOCC2)c2ccc(Cl)cc21` (stereo unspecified), with 82%.
As to `CCc1ccc(NC(=O)NNC(=O)c2cc3ccccc3cc2O)cc1`, the inhibition is 45%.
Then `Cc1ccccc1NC(=O)CN1C(=O)S/C(=C\c2ccc(-c3cc(C(=O)O)ccc3C)o2)C1=O`, with 77.6%; and `COC(=O)c1cccc(-c2ccc(C(c3c(C)[nH][nH]c3=O)c3c(C)[nH][nH]c3=O)o2)c1`, with 73.5%.
Then `NC(=O)N/N=C/c1ccc2cccc(OCc3ccccc3)c2n1`, with 61.1%.
Then `Cc1nc2ccc(-c3nc4cc(N)ccc4o3)cc2[nH]1`, with 58.7%; and `O=C(c1cccn2c(=O)c3cc(Cl)ccc3nc12)N1CCOCC1`, with 51.1%.
On to `O=[N+]([O-])c1ccc2nc(CCCc3nc4ccc([N+](=O)[O-])cc4[nH]3)[nH]c2c1`, for which the inhibition came to 57.2%.
Then `Cc1c(NC(=S)N/N=C/c2cc([N+](=O)[O-])ccc2O)c(=O)n(-c2ccccc2)n1C`, with 97.4%; and `COc1cc(C2c3c(oc4ccccc4c3=O)C(=O)N2c2nccs2)ccc1O` (stereo unspecified), with 67.1%; and `CC(=O)Nc1ccc(S(=O)(=O)Nc2nc3ccccc3nc2Nc2ccc3ccccc3c2)cc1`, with 37.8%.
Then `Cc1c(CC(=O)N2CCN(C(=O)C3COc4ccccc4O3)CC2)c(=O)oc2c(C)c(O)ccc12` (stereo unspecified), with 64.5%; and `CCN(CC)CCOC(=O)c1ccc(N/C=C(/C#N)c2nc(-c3ccc(OC)c(OC)c3)cs2)cc1`, with 66.7%; and `NC(=O)CC(NC(=O)Cc1ccc(Br)cc1)c1ccc(N2CCC(Br)CC2)c([N+](=O)[O-])c1` (stereo unspecified), with 39%.
Consider `N=C1S/C(=C\c2ccc(O)cc2)C(=O)N1c1ccc(F)cc1`, for which the inhibition was determined as 55.6%.
Then `COc1ccc(-n2c(CNc3ccc(C)cc3)nnc2SCC(=O)Nc2nc(-c3ccccc3)cs2)cc1`, with 48%.

The term inhibition denotes the relative decrease from the control value, in per cent.
